The results in this text go back to US10046060B2, “Co-administration of an agent linked to an internalization peptide with an anti-inflammatory” (NoNO Inc., priority 2007, dated 2018).

For this assay, the system named is rats. In words: Mean arterial pressure (MAP) in rats after Tat peptides with or without anti-inflammatory agents. The settings on record: cromolyn 5 mg/kg i.v. about five minutes before Tat-NR2B9c; FIGS. 8A-D.

As for `O=C(O)c1cc(=O)c2c(OCC(O)COc3cccc4oc(C(=O)O)cc(=O)c34)cccc2o1` [cromolyn, 5,5′-(2-hydroxypropane-1,3-diyl)bis(oxy)bis(4-oxo-4H-chromene-2-carboxylic acid)], the “Effect on decline in MAP due to Tat-NR2B9c” value is “significantly reduces the decline in MAP”.
